Data taken from PubChem BioAssay AID686979 (National Center for Advancing Translational Sciences (NCATS), 2013).
“And” between values parts separate entries of the source, which are not always exact repeats. Identical values can stand only once. The campaign covered roughly 420,000 compounds. About 50,000 (12%) were called active. This list was built around the results that the source calls inconclusive (neither active nor inactive); the mix of calls is not that of the screen. The call rests on the fitted dose curve; in most records, active means well fitted inhibition curve with a large enough effect; inconclusive means small, poorly fitted or top-dose-only effect; inactive means flat fitted curve, though single readings scatter. No potency is given beside an inconclusive call; the fits are too rough.

Test: qHTS for Inhibitors of human tyrosyl-DNA phosphodiesterase 1 (TDP1): qHTS in cells in presence of CPT; further: nearly all actives have a fitted effect of over 55% in size
Details: chicken DT40 Tdp1-/-;hTDP1 cells + 20 nM CPT, ATP luminescence, 48 h; activity change, negative = growth inhibition: at 46.2 µM (top of the series) unless noted
How it was run: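 Chicken DT40 Tdp1-/- cells stably complemented with human TDP1 were seeded at 400 cells/well in medium containing 20 nM camptothecin, exposed to pin-transferred compounds, and grown at 37 °C for at least 48 hr. Viability was read as ATP luminescence.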
On the % scale 0 is the no-effect control and ±100 the full control effect; potency means the concentration at half of the fitted maximal effect; tags describe the fitted curve by direction and shape.

SMILES	Potency	activity change, negative = growth inhibition
Cn1c(SCC(=O)Nc2ccccc2)nc2c([nH]c3ccccc32)c1=O	inconclusive [inhibitor, single point]	
COc1ccccc1-c1noc2c1C(=O)N(Cc1cn(-c3ccc(Cl)cc3)nn1)CC2	inconclusive [inhibitor, single point]	
COC(=O)[C@]1(C)CCC[C@@]2(C)C3CC[C@@]4(C)C[C@]3(CCC21)CC(=O)N4C (some centres undefined)	inconclusive [inhibitor, single point]	
Cc1cccc2cc(CN(Cc3cccnc3)C(=S)NCCCN(C)C)c(=O)[nH]c12	active: 13 µM	
Cc1c(S(=O)(=O)N2CCC(C)CC2)c(=O)n(C)c(=O)n1C		inactive: 3.56%
O=C(NCc1ccc(Cl)cc1)c1cccnc1	inconclusive [inhibitor, single point]	
CCc1c(C)sc(NC(=O)Cn2nc(C(F)(F)F)c3c2CCCC3)c1C#N	inconclusive [inhibitor, single point]	
Cc1ccc(CN2CC(N3CCN(CCO)CC3)CS2(=O)=O)cc1 (centres undefined)		inactive: -6.67%
CC(Oc1ccc(Br)cc1)C(=O)Nc1ccc(S(=O)(=O)NC2=NCCCCC2)cc1 (centres undefined)	inconclusive [inhibitor, single point]	
COc1ccc(S(=O)(=O)N(C)C)cc1NC(=O)c1ccc2c(c1)OCCO2		inactive: -22.4%
Cc1ccc(S(=O)(=O)N2[C@@H](c3ccc(C#N)cc3)C(C(=O)O)=C[C@H]2CC2CCCC2)cc1	inconclusive [inhibitor, single point]	
CC(=O)c1c(C)n(-c2cccc(Cl)c2)c2ccc(O)cc12	inconclusive [inhibitor, full curve, poor fit]	
Clc1cccc(Cl)c1C1=NOC(c2nnc(-c3ccccc3)o2)C1 (centres undefined)		inactive: -24.8%
CC(C)(O)C(=O)N=Nc1c(O)[nH]c2ccccc12		inactive: 0.369%
CCCn1c(-c2ccc(OC)cc2)nc2ccccc21	active: 2.59 µM	
O=C(CN1CCSC1=O)N1CCN(S(=O)(=O)c2ccc(F)cc2)CC1		inactive: 2.84%
Cc1ccc(C)c(S(=O)(=O)Nc2ccc(C(=O)NCCCN3CCOCC3)cc2)c1	inconclusive [inhibitor, single point]	
COc1ccc(-c2cc(C(=O)N(C)Cc3cccc(OC)c3OC)c3ccccc3n2)cc1OC	active: 20.6 µM	
CC1(C)C(=O)OC(c2c(F)c(F)c(F)c(F)c2F)C2(CCCCC2)C1=O (centres undefined)		inactive: -22.1%
CCOCCc1nnc(NC(=O)C(C)Oc2ccccc2)s1 (centres undefined)		inactive: -3.43%
O=C(N/N=C\C=C\c1ccco1)c1cc(-c2ccc3ccccc3c2)n[nH]1	inconclusive [inhibitor, single point]	
CCn1c(SCC(=O)c2ccc(OC)cc2)nnc1C(C)NC(=O)c1ccc(OC)cc1 (centres undefined)	inconclusive [inhibitor, full curve, poor fit]	

SMILES	Potency	activity change, negative = growth inhibition
CC1(C(=O)NS(=O)(=O)C2CC2)CCCN(C(=O)c2cccc(C(F)(F)F)c2)C1 (centres undefined)	inconclusive [inhibitor, partial curve]	
COc1ccccc1C1CN(CCNC(=O)[C@@H]2CSC(=O)N2)Cc2ccccc2O1 (some centres undefined)		inactive: -0.941% [at 9.04 µM]
CC1(C(=O)N(Cc2ccccc2)Cc2ccccc2)CC1(Br)Br (centres undefined)	inconclusive [inhibitor, single point]	
Cc1ccc(C(=O)Nc2cccc(C(F)(F)F)c2)cc1NC(=O)c1csc(-c2ccncc2)n1	active: 9.2 µM and active: 6.51 µM	
CCn1nc(C)cc1C(=O)NC1CCCc2c1cnn2-c1cc(F)cc(F)c1 (centres undefined)	inconclusive [inhibitor, single point]	
Cc1cccc(CCNS(=O)(=O)c2cc3c(cc2C)NC(=O)CO3)c1	inconclusive [inhibitor, partial curve, poor fit]	
O=C(/C=C\c1ccco1)Nc1ccc(N2CCN(C(=O)c3ccccc3)CC2)cc1	inconclusive [inhibitor, single point]	
CC(C)OCCCNC(=O)c1ccc(CN2CCc3ccccc3C2)cc1	inconclusive [inhibitor, single point]	
CCCCCCOc1ccc(C(=O)n2cnc(N)n2)cc1		inactive: -1.64%
CC(C)(C)[C@@H]1COC(=O)[C@@H](Cc2ccc(F)cc2)C/C=C\C[C@H](CC(=O)N(CCO)Cc2ccccc2)C(=O)N1	active: 23.1 µM	
CC(=O)OCC[C@H](NS(=O)(=O)OCC(Cl)(Cl)Cl)c1ccccc1		inactive: -7.41%
O=C1CN(C(=O)c2c(F)cccc2Cl)C(c2ccc(F)cc2)c2cc(Br)ccc2N1 (centres undefined)	inconclusive [inhibitor, single point]	
Cn1c(=O)n(C)c2cc(N3CCOCC3)c(NS(=O)(=O)c3ccc(F)cc3)cc21	inconclusive [inhibitor, single point]	
Cc1ccc(C(=O)N2CCCc3ccccc32)c(Cl)c1	inconclusive [inhibitor, single point]	
O=S(=O)(c1ccc(F)cc1)N1CCN(c2ccccn2)CC1		inactive: 17.7%
Cc1ccc(OCC(=O)Nc2ccc(NC(=O)c3ccccc3)c(C)c2)cc1	inconclusive [inhibitor, single point]	
CCn1c(CNC(=O)c2cccc(C)c2)nnc1SCC(=O)NC1=NCCS1		inactive: 1.79%
COc1ccc2[nH]c3c(c2c1)CCN1C(=O)C(CC(=O)NCc2cccc(C(F)(F)F)c2)C[C@H](C(=O)N2CCCCC2)[C@@]31CCc1ccccc1 (some centres undefined)	active: 16.4 µM	
COc1ccc2[nH]c(=O)c(CN(Cc3nnnn3Cc3ccccc3)CC3CCCO3)cc2c1 (centres undefined)	active: 11.6 µM	
COC(=O)Cc1ccc(NC(=S)Nc2cccc(C)n2)cc1	inconclusive [inhibitor, single point]	
CCN1CCN(S(=O)(=O)c2ccc(OC)c(NC(=O)c3ccccc3F)c2)CC1	inconclusive [inhibitor, single point]	
Clc1ccc(CN2CCN(c3ncnc4scc(-c5cccs5)c34)CC2)cc1	active: 13 µM	
